The values below come from ChEMBL document CHEMBL1961873, “Compounds: GSK PKIS; Assays: Nanosyn kinase panel” (2012).

For some of these results: This list holds what a sample rich in strong results left over. Only a part is listed here, and it is no random draw.

By inhibition is commonly meant the relative decrease from the control value, in per cent.

The target of test [1] is CDK3/Cyclin E (Homo sapiens) (UniProt P24864+Q00526). To be noted: at 1 µM.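 Further: each figure is a mean percent inhibition of the CDK3/cyclin E complex.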
For test [2], the target named is Cyclin-dependent kinase 4 (Homo sapiens) (UniProt P11802). The note with it: at 0.1 µM.
Test [3] shares this target. The note with it: at 1 µM.
Test [4] deals with Cyclin-dependent kinase 5 (Homo sapiens) (UniProt Q00535). The note with it: at 0.1 µM.
The target is the same in test [5]. To be noted: at 1 µM.
For test [6], the target named is Cyclin-dependent kinase 6 (Homo sapiens) (UniProt Q00534). The note with it: at 0.1 µM.
Test [7] has the same target. To be noted: at 1 µM.
The target of test [8] is Dual specificity protein kinase CLK2 (Homo sapiens) (UniProt P49760). To be noted: at 0.1 µM.
Test [9] shares this target. To be noted: at 1 µM.
In test [10] the target is Dual specificity protein kinase CLK3 (Homo sapiens) (UniProt P49761). The note with it: at 0.1 µM.
Test [11] has the same target. The note with it: at 1 µM.
For test [12], the target named is Dual specificity tyrosine-phosphorylation-regulated kinase 1A (Homo sapiens) (UniProt Q13627). To be noted: at 0.1 µM.
The target is the same in test [13]. The note with it: at 1 µM.
In test [14] the target is Dual specificity tyrosine-phosphorylation-regulated kinase 1B (Homo sapiens) (UniProt Q9Y463). To be noted: at 0.1 µM.
Test [15] has the same target. To be noted: at 1 µM.
Test [16] concerns the target T1, Dual specificity tyrosine-phosphorylation-regulated kinase 2 (Homo sapiens) (UniProt Q92630).
T1 sequence (whole entry): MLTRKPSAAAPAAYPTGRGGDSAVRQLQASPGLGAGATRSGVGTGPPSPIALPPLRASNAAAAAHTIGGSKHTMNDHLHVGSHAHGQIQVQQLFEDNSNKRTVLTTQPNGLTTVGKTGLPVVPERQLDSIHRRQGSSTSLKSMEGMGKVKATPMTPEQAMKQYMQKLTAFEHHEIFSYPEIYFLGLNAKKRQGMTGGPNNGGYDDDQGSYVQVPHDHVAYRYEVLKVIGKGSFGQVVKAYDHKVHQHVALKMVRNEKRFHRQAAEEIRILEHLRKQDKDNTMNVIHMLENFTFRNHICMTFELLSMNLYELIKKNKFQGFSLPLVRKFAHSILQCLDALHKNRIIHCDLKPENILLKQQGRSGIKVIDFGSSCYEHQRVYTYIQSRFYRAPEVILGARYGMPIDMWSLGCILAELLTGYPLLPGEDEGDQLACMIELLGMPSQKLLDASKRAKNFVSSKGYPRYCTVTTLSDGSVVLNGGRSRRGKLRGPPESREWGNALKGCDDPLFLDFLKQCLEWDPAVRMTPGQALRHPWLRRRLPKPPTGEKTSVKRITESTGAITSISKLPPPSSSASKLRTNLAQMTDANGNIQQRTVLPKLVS
The note with it: at 0.1 µM.

The target of test [17] is T1, Dual specificity tyrosine-phosphorylation-regulated kinase 2 (Homo sapiens). To be noted: at 1 µM.
Test [18] has as its target Glycogen synthase kinase-3 alpha (Homo sapiens) (UniProt P49840). The note with it: at 0.1 µM.
The target is the same in test [19]. The note with it: at 1 µM.
In test [20] the target is Glycogen synthase kinase-3 beta (Homo sapiens) (UniProt P49841). The note with it: at 0.1 µM.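 Further: values are mean percent inhibition of GSK3B activity, from the GSK Published Kinase Inhibitor Set (PKIS) screening dataset.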

Turning to `Fc1ccc(-c2ncn(C3CCNCC3)c2-c2ccnc(Oc3cccc(F)c3)n2)cc1`, the inhibition in test [1] is -0.04%; in test [2], 1.38%; in test [3], 1.76%; in test [4], 0.34%; in test [5], 1.14%; in test [6], 1.69%. In addition, the inhibition in [7] turned out to be 0.32%; in test [8], 1.73%; in test [9], 3.47%; in [10], 1.25%; in test [11], 2.22%; in test [12] it was 3.35%. Also, the inhibition in test [13] was 6.16%; in [14], -0.55%; in test [15], 1.8%; in [16] it was 3.84%; in [17] it was 6.27%; in test [18], 2.81%. Further, the inhibition is 3.76% in [19] and 3.1% in test [20].
Take `O=C1NC(=O)C(c2ccccc2)=C1Nc1ccccc1`: the inhibition in test [1] came out at 1.36%; in test [2], 5.7%; in [3] it was 13.3%; in test [4], 1.94%; in test [5] it was 7.42%; in [6], 2.92%. In addition, the inhibition in test [7] was 10.4%; in test [8], 2.47%; in [9], 10.4%; in test [10], 1.85%; in [11], 4.88%; in test [12] it was 5.17%. In addition, the inhibition is 17.3% in [13]; 2.25% in test [14]; 7.93% in [15]; 3.42% in [16]; 3.62% in [17]; 19.2% in [18]. Moreover, the inhibition in test [19] stood at 55.5%.
`O=C1NC(=O)C(c2ccccc2Cl)=C1Nc1cc(Cl)c(O)c(Cl)c1`: the inhibition in test [1] is 1.82%; in test [2], 2.68%; in [3] it was 6.41%; in test [4], 0.42%; in test [5], 2.95%; in test [6], 4.76%. Besides, the inhibition in [7] is 7.77%; in test [8], 3.44%; in [9] it was 12.3%; in test [10] it was 3.59%; in [11], 4.11%; in [12] it was 1.79%. For the same compound, the inhibition in test [13] worked out at 9.53%; in [14], 0.73%; in test [15] it was 7.02%; in test [16], 2.54%; in [17] it was 2.84%; in test [18] it was 16.4%. Moreover, the inhibition in test [19] came out at 60.9%.
Regarding `CC(C)(C)c1ccc(Oc2nccc(-c3c(-c4ccc(F)cc4)ncn3C3CCNCC3)n2)cc1`, the inhibition in [1] was -0.43%; in test [2], 1.5%; in test [3] it was 6.51%; in test [4], 4.8%; in [5] it was 4.43%; in test [6] it was -1.34%. Further, the inhibition in test [7] was 2.19%; in [8], -0.22%; in test [9] it was 0.28%; in [10], -0.41%; in test [11], -0.16%; in test [12], 1.75%. Further, the inhibition is 3.55% in test [13]; -3.25% in test [14]; -2.11% in test [15]; 2.34% in test [16]; 1.38% in test [17]; 2.66% in [18]. Besides, the inhibition in test [19] came to 5.93%; in test [20], 1.77%.
As for `COc1ccccc1Oc1nccc(-c2c(-c3ccc(F)cc3)ncn2C2CCNCC2)n1`, the inhibition in [1] was -1.34%; in [2], 2.25%; in [3], 7.64%; in test [4], 5.2%; in test [5] it was 7.05%; in test [6], 1.89%. Besides, the inhibition stood at 2.29% in [7]; 1.18% in [8]; 0.48% in test [9]; 1.16% in [10]; 1.09% in test [11]; 3.51% in [12]. The inhibition in [13] was 4.65%; in [14] it was -0.1%; in test [15] it was 2.12%; in [16], 3.68%; in test [17], 3.17%; in [18] it was 4.26%. Besides, the inhibition amounted to 7.7% in test [19] and 4.08% in test [20].
`O=C1NC(=O)C(c2cccc([N+](=O)[O-])c2)=C1Nc1cc(Cl)c(O)c(Cl)c1`: the inhibition was -1.8% in test [1]; 1.16% in test [2]; 5.72% in [3]; 0.17% in test [4]; 2.27% in test [5]; -0.6% in [6]. Further, the inhibition was 1.57% in test [7]; 2.51% in test [8]; 12.5% in test [9]; -0.26% in test [10]; 2.15% in test [11]; 1.91% in [12]. The inhibition is 20.1% in test [13]; 0.13% in test [14]; 10.5% in test [15]; -0.18% in test [16]; -1.6% in [17]; 48.3% in test [18].
In the case of `O=C(O)c1ccc(Oc2nccc(-c3c(-c4ccc(F)cc4)ncn3C3CCNCC3)n2)cc1`, the inhibition in test [1] was -1.16%; in test [2] it was 3.72%; in test [3] it was 4.08%; in [4], 1.49%; in test [5], 0.26%; in test [6], -1.62%. Besides, the inhibition is 0.34% in test [7]; 0.79% in test [8]; 4.14% in test [9]; 0.91% in test [10]; 2.43% in [11]; 2.82% in [12]. In addition, the inhibition in test [13] was 3.38%; in [14], -0.5%; in test [15], -0.18%; in [16], 4.17%; in test [17] it was 8.56%; in test [18] it was 2.11%. Also, the inhibition in test [19] stood at 1.87%; in [20], 1.1%.
